Measured values: PubChem BioAssay AID1963576 (National Center for Advancing Translational Sciences (NCATS), 2024)
Hit rate of the full screen: of about 46,000 compounds, about 60 (0.1%) were called active. About 3% were inconclusive and are not listed. The call rests on the fitted dose curve; in most records, active means well fitted inhibition curve with a large enough effect; inconclusive means small, poorly fitted or top-dose-only effect; inactive means no such curve, though single readings can be large or run the other way. The list shows a part of the results.

Assay: Primary qHTS assay for Inhibitors of ovarian cancer metastasis using an organotypic tumor microenvironment (TME) model. Further: nearly all actives have a fitted effect of over 65% in size.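 On activity change, negative = inhibition: plate controls were DMSO wells for no effect and tomatine positive control wells for full effect.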
Conditions: SKOV3ip1-GFP adhesion/invasion on 3D omental model, fluorescence; series mostly up to 45.8 µM; activity change, negative = inhibition: at the top concentration
Procedure, shortened: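 Primary human omental fibroblast/mesothelial 3D culture pre-formed 48 h. SKOV3ip1-GFP cells added with compounds (0.36-46 umol/L), incubated 2 h RT/16 h 37 C, fixed; GFP cells quantified at 488/509 nm.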

outcome, inactive:
O=C(Cn1c(=O)n(Cc2ccc3c(c2)OCO3)c(=O)c2oc3ccccc3c21)Nc1ccc(F)cc1, COc1ccc(-c2noc(CSc3nnc(-c4ccncc4)n3-c3ccc(C)cc3)n2)cc1OC, COC(=O)c1ccccc1NC(=O)c1cc2nc(-c3ccc(OC)cc3)cc(C(F)(F)F)n2n1, O=C(CSc1n[nH]c(-c2ccccc2Cl)n1)N1CCN(c2ccccc2)CC1, Cc1ccc(C)c(NC(=O)c2ccc3nc(CCc4ccccc4)oc3c2)c1, CCCCC(CC)CNC(=O)C1CCN(S(=O)(=O)c2cccc3nsnc23)CC1 (stereo unspecified), Cc1ccc(NS(=O)(=O)c2c(C(=O)N3CCC(C)CC3)c(C)n(C)c2C)cc1Cl, COc1ccccc1N1CCN(C(=O)c2cc3c(=O)n(Cc4ccco4)ccc3nc2C)CC1, CCOC(=O)c1c(S(=O)(=O)N2CCCC(C(=O)N3CCN(c4cccc(C)c4C)CC3)C2)c(C)n(C)c1C (stereo unspecified)

Activity change, negative = inhibition, inactive:
CC1CCCCN1C(=O)Cn1c(SCC(=O)N(C)c2ccccc2)nc2ccccc21 (stereo unspecified) 15%, CCn1cc(CNC(=O)c2cc(-c3ccc(C)c(C)c3)nc3ccccc23)c(C)n1 1.88%, O=C(Cn1nc2c(cc1=O)CCCC2)Nc1ccccc1C(F)(F)F -11.6%, Cc1ccc(NC(=O)c2ccc(NC(=O)N3CCSc4nc(C)cc(C)c43)cc2)c(Cl)c1 -3.68%, Cc1cccc(C(c2sc3nc(-c4ccco4)nn3c2O)N2CCN(c3ccccc3)CC2)c1 (stereo unspecified) 1.12%, CCOc1ccccc1CNS(=O)(=O)c1ccc(-c2coc(C)n2)cc1 -10.9%, O=C(C1CCCCC1)N1CC(=O)N2CCc3ccccc3C2C1 (stereo unspecified) 14.8%, Cc1ccc(NC(=O)c2ccc(=O)n(CC(=O)Nc3cccc(C)c3)n2)cc1 -9.02%, Cc1cc(NC(=O)c2cccs2)cc(-c2nc3cc(Cl)ccc3o2)c1O 3.64%, C[C@@H]1CCO[C@H]2Cn3cc(C(=O)NCc4ccc(F)cc4F)c(=O)c(O)c3C(=O)N12 0.451%, CCOC(=O)CNS(=O)(=O)c1cc(-c2nnc(Nc3cccc(O)c3)c3ccccc23)ccc1C 5.55%, CCC(=O)NCc1cc(-c2nn(C)c(=O)c3ccccc23)ccc1OC 0.0778%, CCC(C)(C)C1CCc2c(sc(NC(=O)C3c4ccccc4Oc4ccccc43)c2C(N)=O)C1 (stereo unspecified) 1.25%, Cc1ccccc1NC(=O)CCn1cnc2onc(-c3ccc(F)cc3)c2c1=O 0.545%, O=S(=O)(c1ccccc1)c1nc(-c2cccs2)oc1SCc1ccccc1F 1.9%, CCOc1ccc(NC(=O)CCn2cnc3onc(-c4ccc(F)cc4)c3c2=O)cc1 5.7%, N#Cc1nc(-c2ccc(COc3ccc(Cl)cc3)o2)oc1N1CCN(c2ccccc2)CC1 -25.6%
